Data as given in US20230023009A1, “HETEROCYCLIC COMPOUNDS AND METHODS OF USE THEREOF” (SPARCBIO LLC, priority 2020, published 2023).

How the values were obtained:
[1] = target: KRAS G12C protein (Homo sapiens, UniProt P01116, G12C); assay: Nucleotide exchange assay (Method III, KRAS G12C/Raf-RBD TR-FRET); format: biochemical; details: SOS1-mediated exchange of GDP for GTP, 18 hr compound incubation
Protocol: Method III. Inhibition of SOS1-mediated exchange of GDP for GTP on the KRAS G12C protein was measured in a biochemical assay that monitors association of KRAS G12C protein with the Ras-binding domain of Raf (Raf-RBD), where the association is coupled to exchange of GDP to GTP on the KRAS G12C protein. The assay was performed at WuXi AppTec (Shanghai, China). Compounds were serially diluted in 3-fold dilutions to 11 concentrations and spotted into the wells of an assay plate in a total volume of 150 nL DMSO per well. A 2× enzyme mix was prepared by diluting GDP-bound, His-tagged KRAS G12C to 25 nM in assay buffer. 10 μL/well of 2× enzyme mix was added to all wells, and the plate was sealed and incubated overnight (18 hr) at 23° C. 4×SOS1/GDP and 4×SOS1/GTP were prepared in assay buffer. 5 μL/well of 4×SOS1/GDP mix was added to negative control wells, 5 μL/well of 4×SOS1/GTP mix was added to the remaining wells, and the plate was further incubated at 23° C. for 1 hr. […] The TR-FRET signals, which increase with association of KRAS G12C and Raf-RBD, were measured on a Perkin Elmer Envision 2104 plate reader, and data were analyzed by non-linear regression to obtain IC50 values for inhibition by compounds. […]

[2] = test system: NCI-H2030; assay: Cell proliferation assay panel (Cell Titer-Glo, 72 hr); format: cell-based; details: Homo sapiens
Protocol: (§1) Potency of compounds was determined in cell proliferation assays in a panel of cancer cell lines. Cells were seeded in 384-well plates (Corning, Cat. #3765) at specified densities in 40 μL of culture medium and incubated overnight at 37° C. in a 5% CO2 incubator (culture conditions). With a robotic dispenser, serially diluted test compounds were added in a volume of 20 nL DMSO to wells in the culture plate to achieve the final desired concentrations of test compounds, and the cells were further incubated in culture conditions for 72 hr. The assay was terminated by addition of 25 μL of Cell Titer-Glo reagent (Promega, Madison, Wis.) to each well. Contents were mixed, the plate was incubated for 10 min at room temperature and luminescence was measured. The IC50 value of each test compound was calculated with XLFit curve fitting software. Results are shown in Table 4. ‘+++’ indicates IC50 values≤300 nM, ‘++’ indicates IC50 values between 300 nM-3 μM, and ‘+’ indicates IC50 values≥3 μM.

[3] = test system: MIA PaCa-2; assay: as above; format: cell-based; details: Homo sapiens, MIA PaCa-2, 72 h
Protocol: as §1

[4] = test system: A549; assay: as above; format: cell-based; details: Homo sapiens
Protocol: as §1

[5] = test system: NCI-H1373; assay: as above; format: cell-based; details: Homo sapiens
Protocol: as §1

[6] = test system: KYSE-410; assay: as above; format: cell-based; details: Homo sapiens
Protocol: as §1

[7] = test system: NCI-H358; assay: as above; format: cell-based; details: Homo sapiens
Protocol: as §1

[8] = test system: NCI-H2122; assay: as above; format: cell-based; details: Homo sapiens
Protocol: as §1

[9] = test system: SW1573; assay: as above; format: cell-based; details: Homo sapiens
Protocol: as §1

[10] = test system: NCI-H358 cells; assay: 3D cell proliferation assay (Cell Titer-Glo 3D, 7 days); format: cell-based; details: Homo sapiens, NCI-H358, 168 h, NCI-H358 3D, ultra-low attachment plate
Protocol: NCI-H358 cells (ATCC® CRL-5807™) were plated in a 384-well Black/Clear Round Bottom Ultra-Low Attachment Microplate (Corning) in medium (RPMI-1640+10% FBS) at a density of 1000 cells in 50 μL per well, then incubated overnight at 37° C. and 5% CO2. Cells were treated with test compounds at 9 concentrations within a specified concentration range (e.g., 0.5 nM-10 μM) for generation of dose response curves. Test compounds were prepared by 1:3 serial dilution in DMSO from a specified starting concentration (e.g., 20 μM, 2 μM or 0.2 μM) and then added to wells of the assay plate in a total volume of 150 nL DMSO. The cells were further incubated at 37° C. and 5% CO2 for 7 days. Cell viability was assessed by adding 40 μL of Cell Titer-Glo® 3D reagent (Cat. No.: G9683, Promega) to each well and reading luminescence after mixing and incubation of the samples. The IC50 value of each test compound was calculated with XLFit curve fitting software.

[11] = test system: NCI-H358 subcutaneous xenograft tumors; assay: NCI-H358 mouse xenograft model; details: 30 mg/kg orally once daily; Day 20 after treatment start (day not restated for comparators)
[12] = target: T1, hERG potassium channel (Homo sapiens, UniProt Q12809); assay: hERG inhibition assay (manual whole-cell patch-clamp, CHO cells); format: cell-based
T1 construct: host or cells: CHO
T1 sequence (Q12809 whole entry): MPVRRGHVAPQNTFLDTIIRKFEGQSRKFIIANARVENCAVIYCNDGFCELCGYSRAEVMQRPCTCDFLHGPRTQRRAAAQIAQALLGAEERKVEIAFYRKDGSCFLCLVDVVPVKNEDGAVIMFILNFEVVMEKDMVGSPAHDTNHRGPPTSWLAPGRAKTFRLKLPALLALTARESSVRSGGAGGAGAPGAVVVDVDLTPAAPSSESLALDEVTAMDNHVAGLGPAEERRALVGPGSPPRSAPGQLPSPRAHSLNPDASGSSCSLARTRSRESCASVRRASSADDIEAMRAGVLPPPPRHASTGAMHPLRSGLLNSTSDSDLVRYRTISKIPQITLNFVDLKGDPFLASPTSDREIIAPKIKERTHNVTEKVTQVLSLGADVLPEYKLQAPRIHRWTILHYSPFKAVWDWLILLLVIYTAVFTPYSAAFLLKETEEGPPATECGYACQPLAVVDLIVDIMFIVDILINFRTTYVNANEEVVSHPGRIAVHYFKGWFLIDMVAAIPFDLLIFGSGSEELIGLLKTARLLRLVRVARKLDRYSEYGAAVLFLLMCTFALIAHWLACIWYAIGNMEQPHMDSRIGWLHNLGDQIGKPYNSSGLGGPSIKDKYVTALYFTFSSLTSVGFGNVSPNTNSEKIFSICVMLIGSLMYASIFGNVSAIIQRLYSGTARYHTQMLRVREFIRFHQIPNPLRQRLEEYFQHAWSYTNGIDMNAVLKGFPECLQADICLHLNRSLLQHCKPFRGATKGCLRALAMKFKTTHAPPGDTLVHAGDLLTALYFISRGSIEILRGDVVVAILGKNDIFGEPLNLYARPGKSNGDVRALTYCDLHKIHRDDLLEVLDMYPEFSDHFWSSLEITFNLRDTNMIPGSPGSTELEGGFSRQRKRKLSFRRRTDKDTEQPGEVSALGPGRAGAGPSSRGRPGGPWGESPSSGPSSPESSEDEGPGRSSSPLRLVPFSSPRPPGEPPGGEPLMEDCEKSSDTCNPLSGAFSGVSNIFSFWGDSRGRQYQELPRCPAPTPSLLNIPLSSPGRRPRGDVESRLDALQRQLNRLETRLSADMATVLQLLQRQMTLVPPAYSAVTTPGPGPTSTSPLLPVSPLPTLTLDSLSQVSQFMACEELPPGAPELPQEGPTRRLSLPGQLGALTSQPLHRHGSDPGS
Protocol: Compounds were tested for the potential to inhibit the hERG potassium channel. It is known that inhibition of the hERG channel may cause QT prolongation and increase the risk of cardiac arrhythmias. Therefore, to avoid cardiotoxicity, a compound with relatively low or no inhibition of the channel is desirable. Manual whole-cell patch-clamp recordings were made in Chinese hamster ovary (CHO) cells stably expressing hERG channels (B'Sys, Switzerland). Standard intracellular and bath solutions for hERG current detection were used. Cells were exposed to test compounds at 6 concentrations prepared by 1:3 serial dilution of compounds from a top starting concentration of 30 μM. Currents were elicited by stepping the voltage from a holding potential of −80 mV to −50 mV (20 ms) and then stepping to +40 mV (4 s). A subsequent step to −50 mV (4 s) was used to elicit a tail current which was used for data analysis. Current recordings were made in triplicate using three different cells. Data normalized to the activity in vehicle (0.1 or 0.3% DMSO) were fit with 4-parameter non-linear regression, and IC50 values were determined from the dose-response curves, using GraphPad Prism software.

Chain of KRAS G12C protein (P01116 1-188 isoform P01116-2 G12C): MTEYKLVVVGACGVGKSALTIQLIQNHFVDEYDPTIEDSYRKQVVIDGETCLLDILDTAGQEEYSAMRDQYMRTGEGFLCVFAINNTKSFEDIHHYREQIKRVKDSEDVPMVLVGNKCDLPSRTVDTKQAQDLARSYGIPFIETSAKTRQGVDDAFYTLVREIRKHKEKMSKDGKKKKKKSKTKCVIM

## C=C(F)C(=O)N1CCN(c2nc(N3CC(N(CC)CC)C3)nc3c2COC(c2cccc4cccc(Cl)c24)C3)C[C@@H]1CC#N (single isomer, unassigned) [229 (Isomer A)]
[1]
  pIC50: ≥ 6.52
[2]
  pIC50: 5.52 to 6.52
[3]
  pIC50: 5.52 to 6.52
[4]
  pIC50: ≤ 5.52
[5]
  pIC50: ≤ 5.52
[6]
  pIC50: ≤ 5.52
[7]
  pIC50: ≥ 6.52
[8]
  pIC50: ≤ 5.52
[9]
  pIC50: ≤ 5.52
[10]
  pIC50: ≥ 7.00

## C=CC(=O)N1CCN(c2nc(=O)n(-c3c(C)ccnc3C(C)C)c3nc(-c4c(O)cccc4F)c(F)cc23)[C@@H](C)C1 [X (AMG 510), reference compound]
[11]
  TGI: 87.1%

## C=C(F)C(=O)N1CCN(c2nc(OC[C@@H]3CCCN3C)nc3c2CCN(c2cccc4cccc(Cl)c24)C3)C[C@@H]1CC#N [Y (MRTX849)]
[12]
  pIC50: 6.15

pIC50: −log10 of the molar value.
